The structures appear in SMILES notation. The list shows a part of the results. These are further read-outs of the screen, such as a control signal, another cell line or another target. No call is given for them. Most of these compounds were active or inconclusive in the main read-out, so they are no random draw. The note in brackets gives the kind of curve behind each potency; many fits are weak.

60 compounds from PubChem BioAssay AID1347044 (National Center for Advancing Translational Sciences (NCATS), 2019) can be followed below.
Tags describe the fitted curve by direction and shape.

The test is described as follows: Natriuretic polypeptide receptor (hNpr1) antagonism - Confirmation. Further: nearly all actives have a fitted effect of over 70% in size. The following applies: HEK293 hNpr1 cGMP GloSensor luminescence, ANP-stimulated; measured here: HEK-hNpr1 cytotoxicity, CellTiter-Glo. The gist of the method:
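Compound (30 min, room temperature) preceded stimulation with hNppA peptide at 0.1 nM final for 20 min. Cells were HEK293 carrying hNpr1 plus GloSensor pGS-40F cGMP biosensor, pre-equilibrated 2 h with 2% substrate; cGMP was followed as luminescence pre- and post-agonist.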
For orientation: Cellular ATP, detected with luciferase, serves as a proxy for viable cell number.
One may read the CC50 as the concentration at which the toxic effect on the cells reaches its halfway point. A higher CC50 goes with better tolerance by the cells. Take `Cc1noc(C)c1CCC(=O)NC1CCCc2c1[nH]c1c(Cl)cccc21` (stereo not given): the CC50 was 27.3 µM [falling, single point].
Consider `COc1ccc(C(=O)N2CCN(c3cc(-c4ccc(Cl)cc4)[nH]n3)CC2)cc1`, for which the CC50 was 19.3 µM [falling, partial curve].
Turning to `COc1ccc(OCC2(C)COc3ccc(C(=O)Nc4cccnc4)cc3N2)cc1` (stereo not given), the CC50 was 39.6 µM [falling, partial curve].
For the compound `O=C(Nc1ccc2cn[nH]c2c1)c1ccc2c(c1)OCCN(c1ccccc1)C2`, the half-maximal cytotoxic concentration (CC50) was 44.4 µM [falling, single point].
With `COc1ccc(NC(=O)Cc2c[nH]c3ncc(-c4ccccc4C)cc23)cc1`, the CC50 was 39.6 µM [falling, partial curve].
Regarding `Cc1ccc(C(=O)N2CCC(Cc3nc(-c4ccccc4)no3)CC2)cn1`, the CC50 was 5.44 µM [falling, full curve].
The result for `COc1ccc(CCCN2C(=O)O[C@@H]3CN(c4cc(OC)ncn4)C[C@@H]32)cc1` reads 19.3 µM [falling, partial curve]; that for `Cc1ccc(NC(=O)C2CCN(c3cc(C(F)(F)F)ncn3)CC2)cc1`, 19.3 µM [falling, partial curve].
As for `O=c1[nH]c(C2CCN(Cc3ccc(-c4cccnc4)cc3)CC2)nc2ccc(F)cc12`, the CC50 is 12.2 µM [falling, partial curve].
Consider `O=C(C[C@@H]1CCNC[C@@H]1Cc1cc(CC2CCCCC2)on1)NCc1ccccc1`, for which the CC50 is 28 µM [falling, partial curve].
As to `COc1ccc(C(=O)Nc2ccc(-c3noc([C@@H]4CCCN4Cc4ccccc4C)n3)cn2)cc1`, the CC50 is 9.68 µM [falling, partial curve].
In the case of `O=C(Nc1ccc(Oc2ccccc2)cc1)O[C@@H]1CO[C@H]2[C@@H]1OC[C@@H]2NCC1CCCCC1`, the CC50 was 15.3 µM [falling, partial curve].
With `Clc1ccc2nc(N3CCC(NCCc4cccnc4)CC3)sc2c1`, the CC50 is 19.3 µM [falling, partial curve].
Regarding `c1csc(-c2ccnc(N[C@H]3CO[C@H]4[C@@H]3OC[C@@H]4NCC3CCCCC3)n2)c1`, the CC50 is 25 µM [falling, partial curve].
The result for `COc1cccc(-c2ccc(CN3CCCC(c4nc5ccc(C)cc5c(=O)[nH]4)C3)cc2)c1` (stereo not given) reads 24.3 µM [falling, partial curve]; that for `CC(C)(C)c1csc(NC(=O)c2ccc3c(c2)OCCN(C2CCC2)C3)n1`, 28 µM [falling, partial curve]; that for `O=C(Nc1ccc(Oc2ccccc2)cc1)N[C@H]1CO[C@H]2[C@@H]1OC[C@@H]2n1nnnc1Oc1ccc(-n2ccnc2)cc1`, 19.3 µM [falling, partial curve].
The same measure for `COc1ccc(C(=O)N2CCC3(CC2)N=C(c2ccc(Br)cc2)NO3)cc1`: 19.3 µM [falling, partial curve]; for `CC(C)(Oc1nn(Cc2cccc(Cl)c2)c2ccccc12)C(=O)NCCc1cnc[nH]1`: 35.3 µM [falling, partial curve]; for `CC(=O)N1CCc2cc(S(=O)(=O)CCC(=O)N3CCC(CCOc4ccccc4)C3)ccc21` (stereo not given): 24.3 µM [falling, partial curve].
The result for `COc1ccc(OC)c(CN2CCCn3nc(C)c(-c4ccccc4OCc4ccccc4)c32)c1` reads 21.7 µM [falling, partial curve].
For the compound `CC(C)OC(=O)N1CCC(COc2ccc3c(cnn3CC[S+](C)(=O)[O-])c2)CC1`, the CC50 was 25 µM [falling, partial curve].
With `CN(C(=O)c1ccc2c(c1)NC(C)(COc1cccnc1)CO2)c1ccccc1` (stereo not given), the 50% cytotoxic concentration (CC50) was 7.89 µM [falling, full curve].
With `CC(C)c1ccc(NC(=O)c2cc3n(n2)CC(c2ccc(Cl)cc2)OC3)cc1` (stereo not given), the CC50 is 15.3 µM [falling, partial curve].
On to `CC1=NS(=O)(=O)N(C)C=C1C(=O)OCc1nc(-c2ccc(Br)cc2)no1`, for which the CC50 was 19.3 µM [falling, partial curve].
Turning to `CNC(=O)c1cccc(-c2cnc3[nH]cc(CC(=O)N(C)c4ccccc4)c3c2)c1`, the half-maximal cytotoxic concentration (CC50) is 35.3 µM [falling, partial curve].
With `O=C(c1ccc(F)cc1Cl)N1CCC(n2cc(-c3nc(C4CC4)no3)nn2)C1` (stereo not given), the CC50 was 27.3 µM [falling, partial curve].
For `CCCc1cc(C(=O)N(C)CCOc2ccccc2CC)n(C)n1`, the CC50 was 17.2 µM [falling, partial curve].
With `COc1cccc(N2CCN(c3nc(C(=O)NCc4ccccc4F)cs3)CC2)c1`, the CC50 was 27.3 µM [falling, partial curve].
With `O=C(c1ccc(F)c(F)c1)N1CCC(n2cc(-c3nc(-c4ccccc4)no3)nn2)CC1`, the CC50 was 21.7 µM [falling, partial curve].
In the case of `CCc1ccc(C(=O)N2CCC(Cc3nc(-c4ccc(F)cc4)no3)CC2)cc1`, the CC50 was 3.43 µM [falling, partial curve].
The same measure for `COc1ccc(C(=O)Nc2ccc(-c3noc([C@@H]4CCCN4Cc4c[nH]c5ccccc45)n3)cn2)cc1`: 15.3 µM [falling, partial curve].
The result for `O=C1CCN(Cc2ccc(C(F)(F)F)cc2)CCCC(c2nc(-c3cccnc3)no2)CCN1` (stereo not given) reads 19.3 µM [falling, partial curve]; that for `O=C(Nc1ccc(Oc2ccccc2)cc1)O[C@@H]1CO[C@H]2[C@@H]1OC[C@@H]2NC(=O)c1ccc(C(F)(F)F)cc1`, 9.68 µM [falling, partial curve]; that for `Cc1cc(=O)n(CC(=O)Nc2ccc(Br)cc2F)c(N(C)Cc2ccccc2)n1`, 17.2 µM [falling, partial curve].
In the case of `O=C(c1ccccc1F)N1CCC(n2cc(-c3nc(-c4ccccc4)no3)nn2)C1` (stereo not given), the CC50 was 24.3 µM [falling, partial curve].
For the compound `CCc1ccc(C(=O)N2CCC(Cc3nc(C(C)C)no3)CC2)cc1`, the half-maximal cytotoxic concentration (CC50) was 27.3 µM [falling, partial curve, poor fit].
For the compound `COc1ccc(NC(=O)Cn2c(N(C)Cc3ccccc3)nc(C)cc2=O)cc1`, the CC50 was 17.2 µM [falling, partial curve].
On to `COc1ccc(CNC(=O)N2CCC(Oc3ccc(-c4noc(C5CC5)n4)cc3)C2)cc1` (stereo not given), for which the CC50 is 43.2 µM [falling, single point].
Regarding `Cc1ccc(-c2noc(CCCC(=O)N3CCC(CCOc4ccccc4F)C3)n2)cc1` (stereo not given), the 50% cytotoxic concentration (CC50) is 17.2 µM [falling, partial curve].
Take `COc1cccc(-c2noc(CC3CCN(C(=O)CCc4ccccc4)CC3)n2)c1`: the CC50 is 30.6 µM [falling, single point].
For `COc1ccc(CN2CCOc3nc(-c4cccc(C(F)(F)F)c4)ncc3C2=O)cc1`, the CC50 is 39.6 µM [falling, partial curve].
Regarding `Cc1cc(CNC(=O)c2ccc(-c3ccccc3Cl)o2)n(C)n1`, the CC50 was 15.3 µM [falling, partial curve].
Turning to `Cc1cc(NC(=O)C(C)(C)Oc2nn(CCOc3ccccc3)c3ccccc23)n(C)n1`, the CC50 is 35.3 µM [falling, partial curve].
For the compound `CC1(CCCCc2ccccc2)COc2ccc(C(=O)NC3CC3)cc2N1` (stereo not given), the half-maximal cytotoxic concentration (CC50) is 35.3 µM [falling, partial curve].
Take `CCC1Oc2ccc(NC(=O)c3ccccc3OC(C)=O)cc2CN(Cc2ccccc2F)C1=O` (stereo not given): the CC50 is 30.6 µM [falling, single point].
As for `COc1ccc(C(=O)N2CCN(c3cc(-c4cccs4)[nH]n3)CC2)c(C)c1`, the CC50 was 19.3 µM [falling, partial curve].
As for `COc1ccc(-c2cn3c(n2)CO[C@@H](CNS(=O)(=O)c2ccc(C)cc2)C3)cc1`, the CC50 is 35.3 µM [falling, partial curve].
The same measure for `Cc1ccccc1CN1Cc2nc(NCc3cccc(F)c3)ccc2OCC1=O`: 35.3 µM [falling, partial curve]; for `COc1ccc(OC)c(NC(=O)Cn2c(N3CCC(C)CC3)nc(C)cc2=O)c1`: 19.3 µM [falling, partial curve].
For the compound `COc1cccc(C(=O)N2CCCN(c3cc(-c4ccc(C)c(C)c4)[nH]n3)CC2)c1OC`, the CC50 is 21.7 µM [falling, partial curve].
As for `O=C(c1ccccc1)N1CCNc2cnc(Nc3cccc(F)c3)nc2C1`, the CC50 is 31.4 µM [falling, partial curve].
The same measure for `Cc1ccccc1CC(=O)N1CCN(C(=O)c2nnn3c2COC(c2ccc(Cl)cc2)C3)CC1` (stereo not given): 19.3 µM [falling, partial curve]; for `c1cncc(COc2cc3c(cn2)NCCN(Cc2ccc4[nH]ccc4c2)C3)c1`: 31.4 µM [falling, partial curve]; for `COc1ccc(C(=O)N2CCN(C(=O)c3nnn4c3COC(c3ccc(Cl)cc3)C4)CC2)cc1F` (stereo not given): 24.3 µM [falling, partial curve].
Turning to `O=C(Nc1ccc(Oc2ccccc2)cc1)O[C@@H]1CO[C@H]2[C@@H]1OC[C@@H]2NS(=O)(=O)c1ccc(Cl)cc1`, the CC50 was 17.2 µM [falling, partial curve].
Consider `Cc1nn(C)c(C)c1C(C)NC(=O)c1ccc(CC2CCN(C(=O)C3CC3)CC2)cc1` (stereo not given), for which the CC50 was 13.7 µM [falling, partial curve].
The same measure for `COCc1cc(NCCSCc2ccccc2C)ncn1`: 19.3 µM [falling, partial curve]; for `CC1(C)[C@H](Cc2cc(COC(=O)c3cccs3)on2)C[C@@H]1NC(=O)c1cccs1`: 31.4 µM [falling, partial curve].
The same measure for `Cc1nn2c(c1-c1ccccc1-c1ccccc1)N(CCC(C)C)CCC2`: 44.4 µM [falling, single point].
